# ChEMBL document CHEMBL5606460, “ASAP - DENV-2 NS2B-NS3 protease fluorescence single point” (2024)
# Among all 2,000 compounds or so, about 110 (5.5%) showed an effect of 50% or more. The list shows a part of the results.
# Biological target: Genome polyprotein (dengue virus type 2) (UniProt P29990)
# [1] = Thailand/16681/1984, Concentration 25.0 uM, Number of replicates 1.0
smiles,measurement,setting,value
COc1cc(CNC(=O)C2CCN(c3ccc(C=O)cc3)CC2)cc(OC)c1OC,inhibition,[1],17.1%
c1cc(CN2CCC(c3c[nH]c4ncccc34)CC2)c2[nH]ccc2c1,inhibition,"Thailand/16681/1984, Concentration 49.5 uM, Number of replicates 2.0, Standard deviation 0.026124302580992558 %",4.96%
same,inhibition,"Thailand/16681/1984, Concentration 99.01 uM, Number of replicates 2.0, Standard deviation 0.5067052600130082 %",6.59%
same,inhibition,"Thailand/16681/1984, Concentration 198.0 uM, Number of replicates 2.0, Standard deviation 0.02340296486634115 %",6.98%
CSCC[C@H](NC(=O)OC(C)(C)C)C(=O)N1CCC[C@H]1C(=O)Nc1ccc(CN)cc1,inhibition,"Thailand/16681/1984, Concentration 49.5 uM, Number of replicates 2.0, Standard deviation 0.5873455681071067 %",0.345%
same,inhibition,"Thailand/16681/1984, Concentration 99.01 uM, Number of replicates 2.0, Standard deviation 0.9875045381203101 %",1.56%
same,inhibition,"Thailand/16681/1984, Concentration 198.0 uM, Number of replicates 2.0, Standard deviation 0.49996007837732465 %",2.5%
O=Cc1ccc(N2CCC(C(=O)N3CCN(CC(=O)N4CCOCC4)CC3)CC2)cc1,inhibition,[1],10.1%
O=Cc1ccc(N2CCC(C(=O)Nc3cc(Cl)ccc3Br)CC2)cc1,inhibition,[1],13.8%
O=Cc1ccc(N2CCC(C(=O)N(CCCO)Cc3ccncc3)CC2)cc1,inhibition,[1],15.4%
O=Cc1ccc(N2CCC(C(=O)Nc3cc(Cl)cnc3Br)CC2)cc1,inhibition,[1],13.6%
CC(C)NC(=O)CN1CCN(C(=O)C2CCN(c3ccc(C=O)cc3)CC2)CC1,inhibition,[1],11.2%
CC[C@H]1CCN(C(=O)c2cc(Cl)ccc2NS(=O)(=O)c2ccc(Oc3ccccc3Cl)cc2)C1,inhibition,"Thailand/16681/1984, Concentration 49.5 uM, Number of replicates 2.0, Standard deviation 0.47789805764320614 %",46.7%
same,inhibition,"Thailand/16681/1984, Concentration 99.01 uM, Number of replicates 2.0, Standard deviation 0.11836183761011393 %",61.8%
same,inhibition,"Thailand/16681/1984, Concentration 198.0 uM, Number of replicates 2.0, Standard deviation 0.034704726588234404 %",73.4%
O=Cc1ccc(N2CCC(C(=O)Nc3cccnc3Br)CC2)cc1,inhibition,[1],14.7%
C#CCN(Cc1ccccc1Cl)C(=O)C1CCN(c2ccc(C=O)cc2)CC1,inhibition,[1],14.7%
CNC(=O)c1cccc(CNc2cc(Cl)cc(C(=O)NC(C)(C)CO)c2)c1,inhibition,"Thailand/16681/1984, Concentration 49.5 uM, Number of replicates 2.0, Standard deviation 0.035088768671865674 %",-7.67%
same,inhibition,"Thailand/16681/1984, Concentration 99.01 uM, Number of replicates 2.0, Standard deviation 1.5850296817659273 %",-9.84%
same,inhibition,"Thailand/16681/1984, Concentration 198.0 uM, Number of replicates 2.0, Standard deviation 29.186943451836452 %",5.8%
Cc1cc(CO)c2cccc(NC(=O)CCN)c2n1,inhibition,"Thailand/16681/1984, Concentration 49.95 uM, Number of replicates 2.0, Standard deviation 0.675365146636023 %",28.7%
same,inhibition,"Thailand/16681/1984, Concentration 99.9 uM, Number of replicates 2.0, Standard deviation 0.4014376052982588 %",91.2%
CN(CCc1ccc([N+](=O)[O-])cc1)C(=O)C1CCN(c2ccc(C=O)cc2)CC1,inhibition,[1],14.6%
COc1ccc(S(=O)(=O)Nc2ccc(C(=O)Nc3nccs3)cc2)cc1,inhibition,"Thailand/16681/1984, Concentration 49.5 uM, Number of replicates 2.0, Standard deviation 1.1679675653751038 %",3.03%
same,inhibition,"Thailand/16681/1984, Concentration 99.01 uM, Number of replicates 2.0, Standard deviation 0.18833150669698956 %",0.212%
same,inhibition,"Thailand/16681/1984, Concentration 198.0 uM, Number of replicates 2.0, Standard deviation 1.0680790075686786 %",-0.267%
c1ccc2c(C[C@H]3COCCN3Cc3n[nH]c4ccccc34)c[nH]c2c1,inhibition,"Thailand/16681/1984, Concentration 49.5 uM, Number of replicates 2.0, Standard deviation 1.3824178955627795 %",2.4%
same,inhibition,"Thailand/16681/1984, Concentration 99.01 uM, Number of replicates 2.0, Standard deviation 1.1015803784116542 %",5.55%
same,inhibition,"Thailand/16681/1984, Concentration 198.0 uM, Number of replicates 2.0, Standard deviation 1.376431104319201 %",8.09%
O=Cc1ccc(N2CCC(C(=O)N3CCN(Cc4cccc(F)c4)CC3)CC2)cc1,inhibition,[1],12.4%
Cc1cc(CO)c2cccc(Cc3cccc(C(=O)NCC(=O)O)c3)c2n1,inhibition,"Thailand/16681/1984, Concentration 49.95 uM, Number of replicates 2.0, Standard deviation 0.8336363408632846 %",63.2%
same,inhibition,"Thailand/16681/1984, Concentration 99.9 uM, Number of replicates 2.0, Standard deviation 0.025873444538655716 %",79.2%
CCn1ccc2cc(CN3CCC(c4c[nH]c5cccnc45)CC3)ccc21,inhibition,"Thailand/16681/1984, Concentration 49.5 uM, Number of replicates 2.0, Standard deviation 3.7819929973968 %",-5.96%
same,inhibition,"Thailand/16681/1984, Concentration 99.01 uM, Number of replicates 2.0, Standard deviation 3.4981517586460003 %",-3.96%
same,inhibition,"Thailand/16681/1984, Concentration 198.0 uM, Number of replicates 2.0, Standard deviation 3.018690179363585 %",1.45%
COc1cccc(CN(C(=O)C2CCN(c3ccc(C=O)cc3)CC2)C23CC4CC(CC(C4)C2)C3)c1,inhibition,[1],17.5%
Cc1nc(CNC(=O)C2CCN(c3ccc(C=O)cc3)CC2)nc2c1CCCC2,inhibition,[1],15.6%
Cc1cc(CO)c2cccc(NC(=O)CN3CCOCC3)c2n1,inhibition,"Thailand/16681/1984, Concentration 49.95 uM, Number of replicates 2.0, Standard deviation 2.1720644748171827 %",8.27%
same,inhibition,"Thailand/16681/1984, Concentration 99.9 uM, Number of replicates 2.0, Standard deviation 1.8504772771832996 %",15.1%
Cc1nc(N)c2cccc(Cl)c2n1,inhibition,"Thailand/16681/1984, Concentration 49.95 uM, Number of replicates 2.0, Standard deviation 5.075529174302592 %",-8.29%
same,inhibition,"Thailand/16681/1984, Concentration 99.9 uM, Number of replicates 2.0, Standard deviation 2.1313934403537464 %",-8.87%
CC(C)c1cc(CN2CCC3(CC2)C(=O)NCc2ccccc23)n[nH]1,inhibition,"Thailand/16681/1984, Concentration 49.5 uM, Number of replicates 2.0, Standard deviation 0.17429361371661756 %",0.45%
same,inhibition,"Thailand/16681/1984, Concentration 99.01 uM, Number of replicates 2.0, Standard deviation 0.9779542729819841 %",1.01%
same,inhibition,"Thailand/16681/1984, Concentration 198.0 uM, Number of replicates 2.0, Standard deviation 0.6107439126251798 %",1.47%
Cc1cc(CN)c2cccc(Cl)c2n1,inhibition,"Thailand/16681/1984, Concentration 49.95 uM, Number of replicates 2.0, Standard deviation 5.413623438036859 %",-7.74%
same,inhibition,"Thailand/16681/1984, Concentration 99.9 uM, Number of replicates 2.0, Standard deviation 5.696602605148216 %",-7.99%
